Measured values taken from the supplement of paper PMC10369915.
This is one part of the list. Rule as the data show it: active = 3.2 or more and inactive = the rest. Most of these values are background signal.

How the values were obtained:
Assay in all cases: enrichment score (SH2-bound / input frequency) (ratio); bacterial display of known human phosphotyrosine sites (pTyr-Var adds point mutants) read by sequencing; higher = stronger binding; tyrosines were phosphorylated by kinases first
Conditions in all cases: peptide library: pTyr-Var
SHP2 C-SH2 domain E139D = molecular target: SHP2 C-SH2 domain E139D
[1] = molecular target: SHP2 C-SH2 domain wild-type
SHP2 N-SH2 domain L43F = molecular target: SHP2 N-SH2 domain L43F
SHP2 N-SH2 domain T42A = molecular target: SHP2 N-SH2 domain T42A
SHP2 N-SH2 domain T52S = molecular target: SHP2 N-SH2 domain T52S
[2] = molecular target: SHP2 N-SH2 domain wild-type
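Also: displayed peptides selected on beads carrying the immobilized SH2 domain, with library peptides lacking any tyrosine serving as negative controls.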

| Binder | enrichment score (SHP2 C-SH2 domain E139D) | enrichment score [1] | enrichment score (SHP2 N-SH2 domain L43F) | enrichment score (SHP2 N-SH2 domain T42A) | enrichment score (SHP2 N-SH2 domain T52S) | enrichment score [2] |
| --- | --- | --- | --- | --- | --- | --- |
| DDLEVYLKHLL [SACS_Y3477] | inactive: 1.54 | inactive: 1.17 | inactive: 1.01 | inactive: 1.04 | inactive: 1.17 | inactive: 0.996 |
| SQKRKYIEIDS [SDAD1_Y580] | inactive: 0.541 | inactive: 0.559 | inactive: 0.948 | inactive: 1.4 | inactive: 0.892 | inactive: 0.522 |
| LKALHYMAQTS [SACS_Y3367_V3369A] | inactive: 1.31 | inactive: 1.23 | inactive: 1.19 | inactive: 0.894 | inactive: 1.09 | inactive: 1.24 |
| STEAIYWRFSK [SH3PXD2B_Y42_R43W_YF] | inactive: 0.745 | inactive: 0.718 | inactive: 0.702 | inactive: 0.952 | inactive: 0.724 | inactive: 0.907 |
| GLDGSYLLTDS [SH2D1A_Y29_R32T] | inactive: 0.685 | inactive: 0.651 | inactive: 0.771 | inactive: 0.638 | inactive: 0.707 | inactive: 0.606 |
| EEQKKYFNAMK [SCN5A_Y1494_YF] | inactive: 0.729 | inactive: 0.574 | inactive: 0.586 | inactive: 0.627 | inactive: 0.585 | inactive: 0.715 |
| KKRRSYGNSSD [SELENOK_Y52] | inactive: 0.317 | inactive: 0.52 | inactive: 0.306 | inactive: 0.355 | inactive: 0.213 | inactive: 0.239 |
| GLDGSYLLRFS [SH2D1A_Y29_D33Y_YF] | inactive: 1.21 | inactive: 1.1 | inactive: 1.1 | inactive: 1.2 | inactive: 1.19 | inactive: 1.2 |
| AGDGRYEVLFL [SEMA3F_Y478_A474G] | inactive: 0.717 | inactive: 0.734 | inactive: 0.733 | inactive: 1.19 | inactive: 0.792 | inactive: 0.784 |
| DPAFGYEDFTR [SESN2_Y323_T320A] | inactive: 0.74 | inactive: 0.692 | inactive: 0.636 | inactive: 0.597 | inactive: 0.587 | inactive: 0.569 |
| EEQKKYYNAVK [SCN5A_Y1494_M1498V] | inactive: 0.536 | inactive: 0.467 | inactive: 0.59 | inactive: 0.588 | inactive: 0.504 | inactive: 0.761 |
| FFCKFYNKSED [RYR1_Y4864_R4861C] | inactive: 0.951 | inactive: 1.39 | inactive: 1.02 | inactive: 0.785 | inactive: 1.04 | inactive: 1.36 |
| EQKKYYNATKK [SCN5A_Y1495_M1498T] | inactive: 0.657 | inactive: 0.704 | inactive: 0.663 | inactive: 0.715 | inactive: 0.723 | inactive: 0.571 |
| FQCLRYIKQLG [SAMHD1_Y146_R143C] | inactive: 1.09 | inactive: 1.18 | inactive: 0.855 | inactive: 0.699 | inactive: 0.692 | inactive: 1.17 |
| RAYRRYLLKQK [SCN2A_Y1919] | inactive: 0.501 | inactive: 0.157 | inactive: 0.291 | inactive: 0.225 | inactive: 0.249 | inactive: 0.277 |
| DAVAVCHGKIS [SH2D1A_Y7_Y7C] | inactive: 0.819 | inactive: 0.863 | inactive: 0.574 | inactive: 0.677 | inactive: 0.642 | inactive: 1.16 |
| RCQDLYSARDL [SART1_Y249_R245C] | inactive: 0.843 | inactive: 0.989 | inactive: 0.807 | inactive: 0.673 | inactive: 0.771 | inactive: 0.854 |
| QTWKTYVRQQQ [SFI1_Y164] | inactive: 0.833 | inactive: 0.714 | inactive: 0.794 | inactive: 0.848 | inactive: 0.901 | inactive: 0.867 |
| EQKKYYNAVKK [SCN5A_Y1495_M1498V] | inactive: 1.16 | inactive: 1.18 | inactive: 1.02 | inactive: 0.876 | inactive: 1.01 | inactive: 0.986 |

| Binder | enrichment score (SHP2 C-SH2 domain E139D) | enrichment score [1] | enrichment score (SHP2 N-SH2 domain L43F) | enrichment score (SHP2 N-SH2 domain T42A) | enrichment score (SHP2 N-SH2 domain T52S) | enrichment score [2] |
| --- | --- | --- | --- | --- | --- | --- |
| RAFRHYLLKQK [SCN2A_Y1919_R1918H_YF] | inactive: 0.337 | inactive: 0.394 | inactive: 0.356 | inactive: 0.43 | inactive: 0.338 | inactive: 0.374 |
| MSNFAYVKREV [SCN1A_Y1694] | inactive: 1 | inactive: 0.823 | inactive: 0.93 | inactive: 0.689 | inactive: 0.975 | inactive: 0.905 |
| VVLVSYVPSSQ [SH2B1_Y624] | inactive: 2.89 | inactive: 2.42 | inactive: 2.82 | inactive: 2.37 | inactive: 2.45 | inactive: 2.67 |
| LVMFIDAIFGM [SCN1A_Y1684_Y1684D] | inactive: 2.98 | active: 3.37 | inactive: 3.01 | inactive: 2.33 | active: 3.81 | active: 4.04 |
| EEQKKYFNATK [SCN5A_Y1494_M1498T_YF] | inactive: 1.21 | inactive: 0.82 | inactive: 0.943 | inactive: 0.813 | inactive: 0.784 | inactive: 0.82 |
| RAFRRYLLKQK [SCN2A_Y1919_YF] | inactive: 0.248 | inactive: 0.283 | inactive: 0.282 | inactive: 0.352 | inactive: 0.213 | inactive: 0.325 |
| NLAAQYTTVGR [SGSH_Y240_D235N] | inactive: 0.721 | inactive: 1.31 | inactive: 0.768 | inactive: 1.15 | inactive: 0.654 | inactive: 0.801 |
| GLDGSYLPRDS [SH2D1A_Y29_L31P] | inactive: 1.12 | inactive: 0.67 | inactive: 0.628 | inactive: 0.653 | inactive: 0.632 | inactive: 0.585 |
| EEQKKNFNAMK [SCN5A_Y1494_Y1494N_YF] | inactive: 0.524 | inactive: 0.634 | inactive: 0.624 | inactive: 0.695 | inactive: 0.671 | inactive: 0.707 |
| KHTLSYVDVGT [SDHA_Y629] | inactive: 0.917 | inactive: 0.939 | inactive: 1.63 | inactive: 2.45 | inactive: 2.11 | inactive: 1.22 |
| DLAAQYTTVGR [SGSH_Y240] | inactive: 0.84 | inactive: 0.973 | inactive: 0.696 | inactive: 0.761 | inactive: 0.76 | inactive: 0.564 |
| LKALHYMVQTS [SACS_Y3367] | inactive: 1.98 | inactive: 2.07 | inactive: 2.87 | inactive: 1.84 | active: 3.21 | inactive: 2.24 |
| HRNGMYGLHQD [SGSH_Y89_Q85R] | inactive: 1.32 | inactive: 1.15 | inactive: 0.85 | inactive: 1.08 | inactive: 1.05 | inactive: 1.02 |
| IVGLLYRLLTE [SETX_Y1978] | active: 3.92 | active: 3.37 | active: 3.68 | inactive: 2.79 | inactive: 3.02 | active: 3.38 |
| LLINKYGLSAH [SCP2_Y151] | inactive: 0.811 | inactive: 0.837 | inactive: 1.11 | inactive: 0.917 | inactive: 1.05 | inactive: 0.743 |
| TVSQPYSFIEF [SEC22B_Y110_R108Q] | inactive: 1.98 | active: 3.46 | active: 4.24 | active: 6.26 | active: 5.3 | inactive: 1.49 |
| AIKSFYAALID [RYR1_Y2426_M2423K] | inactive: 1.75 | inactive: 2.21 | inactive: 1.96 | inactive: 2.07 | inactive: 1.96 | inactive: 1.78 |
| FQNGMYGLHQD [SGSH_Y89_H84Y_YF] | inactive: 0.904 | inactive: 0.904 | inactive: 1.6 | inactive: 0.829 | inactive: 0.967 | inactive: 0.965 |
